The record followed here is PubChem BioAssay AID1508624 (National Center for Advancing Translational Sciences (NCATS), 2021).

Structures are written as SMILES. Screen size: about 48,000 compounds; about 120 (0.25%) were called active. Roughly 4% stayed inconclusive and do not appear here. Calls come from the whole dose curve; as a rule, active = well fitted activation curve with a large enough effect; inconclusive = small, poorly fitted or top-dose-only effect, or another doubt; inactive = no such curve, though single readings can be large or run the other way. Some of the results follow.

This test is described as follows: Primary qHTS for Identification of Small Molecule Activators of Huntingtin-Antisense Promoter Activity. Note: nearly all actives have a fitted effect of over 55% in size. The settings on record: HEK293 HTT-AS promoter firefly luciferase reporter, 24 h; series mostly up to 57.5 µM; activity change, positive = activation: at the top concentration. The method, boiled down:
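Quantitative HTS used concentration series of up to 57.5 uM final on HEK293 luciferase reporter cells, 24 h at 37 degrees C. Readout was Dual-Glo firefly luminescence.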
(Quantitative high-throughput screening tests each substance at several concentrations.)
As for `CCOc1ccc(S(=O)(=O)N(CC(=O)Nc2ccc3c(c2)OCO3)c2ccc(C)cc2)cc1`, the “activity change, positive = activation” value is inactive: -11.5%.

Regarding `CCn1cc(S(=O)(=O)c2ccc(Cl)cc2)c(=O)c2cc(F)c(N3CCOCC3)cc21`, the “activity change, positive = activation” value is inactive: -5.97%. On to `CCN(CC)S(=O)(=O)c1ccc(N2CCCCS2(=O)=O)cc1`, for which the “activity change, positive = activation” value was inactive: -0.0713%. For `Cc1ccc2onc(CNC(=O)N3CCN(c4cccc(C(F)(F)F)c4)CC3)c2c1` the value was inactive: -18.6%.

Take `Cc1ccc(CNC(=O)CN2C(=O)CCc3cc(S(=O)(=O)N4CCCCC4)ccc32)cc1`: the “activity change, positive = activation” value was inactive: -2.84%. For the molecule `COc1cc(CN(C(=O)c2ccc(Cl)cc2)C2CCS(=O)(=O)C2)cc(OC)c1OC` (configuration not stated), the “activity change, positive = activation” value is inactive: -3.49%. Regarding `CCOC(=O)c1ccc(-c2ccc(/C=C(\C#N)C(=O)Nc3ccc(C)cc3)o2)cc1`, the “activity change, positive = activation” value is inactive: 17.9%. Regarding `CCC(C(=O)NC1CCCCC1)n1c(SCc2cccc(F)c2)nc2ccncc21` (configuration not stated), the “activity change, positive = activation” value was inactive: -28.5%. For `COc1ccccc1NC(=O)Cn1ccn(-c2cc(C)cc(C)c2)c(=O)c1=O` the value was inactive: -4.32%. As to `CC(CNC(=O)C1CCN(C(=O)c2cc3sccc3n2C)CC1)c1ccccc1` (configuration not stated), the “activity change, positive = activation” value was inactive: -4.92%.

As for `CCOc1ccc(CNCc2c(C(=O)O)n(Cc3ccccc3C)c3cc(OC)ccc23)cc1OC`, the “activity change, positive = activation” value is inactive: -16.8%.

In the case of `O=C(C1CCCCC1)N1CC(=O)N2CCCc3ccccc3C2C1` (configuration not stated), the “activity change, positive = activation” value is inactive: -12.1%.

As to `Cc1ccc(Cl)cc1Nc1nn2c(=O)c3ccc(C(=O)NC(C)c4ccccc4)cc3nc2s1` (configuration not stated), the “activity change, positive = activation” value was inactive: -36.2%. For `Cc1cccc(CN2CCN(C(c3ccccc3)c3ccc(Cl)cc3)CC2)c1` (configuration not stated) the value was “inactive”. For `Cc1ccc(Cl)cc1N1CCN(C(=O)CCS(=O)(=O)c2ccc3c(c2)oc(=O)n3C)CC1` the value was inactive: -31.4%; for `Cn1nc(C(=O)NCc2ccccc2)c2c1-c1ccccc1S(=O)(=O)C2`, inactive: -6.54%. For `CCOc1cccc(NC(=O)C2CC(=O)N(C)C(=Nc3ccc(OC)cc3)S2)c1` (configuration not stated) the value was inactive: -17.4%. As to `CCc1ccc(N(CC)C(=O)Cn2cnc3sc(C)c(S(=O)(=O)N4CCN(c5ncccn5)CC4)c3c2=O)cc1`, the “activity change, positive = activation” value is inactive: -4.69%.

As for `CCCOc1ccccc1C1C(C(=O)Nc2ccccc2)=C(C)Nc2nnnn21` (configuration not stated), the “activity change, positive = activation” value was inactive: -9%. Turning to `CCCC1=Nc2cc(C(=O)NCCOC)ccc2Sc2ccccc21`, the “activity change, positive = activation” value is inactive: -37.8%. `Cc1cccc(S(=O)(=O)c2cn(C)c3cc(N4CCC(C)CC4)c(F)cc3c2=O)c1`: the “activity change, positive = activation” value was inactive: 7.89%. For `CCC(=O)N1c2ccc(S(=O)(=O)CCC(=O)NCc3cccc(OC)c3)cc2CC1C` (configuration not stated) the value was inactive: -7.16%. For the molecule `O=C(NCc1ccccc1Cl)c1nnc(Cc2ccc(Cl)cc2)o1`, the “activity change, positive = activation” value is inactive: -4.2%. Consider `COc1ccc(-c2noc(CSc3nnc(C)n3-c3ccc(C)c(C)c3)n2)c(OC)c1`, for which the “activity change, positive = activation” value is inactive: -28.9%.

Turning to `COc1ccc(-c2nc(SCC(=O)NCCc3ccccc3)n[nH]2)cc1`, the “activity change, positive = activation” value was inactive: -15.7%. For `Cc1ccc2onc(CC(=O)N3CCN(c4ccccc4)CC3)c2c1` the value was inactive: -5.96%; for `COc1ccccc1O`, inactive: -7.32% [at 116 µM, percent change from vehicle, -100% = no light]. For `CCOc1ccc(NC(=O)C(C)n2c(=O)cc(C)c3c(C)nn(-c4ccccc4)c32)cc1` (configuration not stated) the value was inactive: -5.89%. `N#C/C(=C\c1cc(Br)c(O)c(Br)c1)c1nc2ccccc2c(=O)[nH]1`: the “activity change, positive = activation” value was inactive: -18.9%. For `CCc1ccc(OCC(=O)Nc2ccc3c(c2)c2ccccc2n3CC)c(Br)c1` the value was inactive: -0.694% [at 11.5 µM, percent change from vehicle, -100% = no light]; for `Cc1ccc(CCNC(=O)CCn2nc(-c3ccc(C)cc3)ccc2=O)cc1`, inactive: -10.9%.

For the molecule `COC(=O)c1ccc2c(=O)n(CCCCCC(=O)N3CCN(c4ccc(Cl)cc4)CC3)c(=O)[nH]c2c1`, the “activity change, positive = activation” value is inactive: -8.62%.

As to `COc1cccc(C(=O)n2nc(-c3cccnc3)nc2NCc2ccc(F)cc2)c1`, the “activity change, positive = activation” value was inactive: -5.69%. For `CCN(CC)CCSc1nnc2c3cc(F)ccc3n(CC)c2n1` the value was inactive: -16.6%; for `COc1ccccc1CNC(=O)Cn1c(=O)nc(-c2ccccc2)c2ccccc21`, inactive: -0.5%. For `CCCSc1nnc2c(n1)OC(c1cccs1)Nc1ccc(Br)cc1-2` (configuration not stated) the value was inactive: 10.3% [at 11.5 µM, percent change from vehicle, -100% = no light]; for `Oc1c(C(c2ccccc2F)N2CCCC2)sc2nc(-c3ccco3)nn12` (configuration not stated), inactive: -12.6%; for `Cc1c(Cl)cccc1NC(=O)Nc1ccc2snnc2c1`, inactive: -35.8%. For `O=C(NCCc1ccccc1)c1ccc(CS(=O)(=O)c2ccc(Cl)cc2)o1` the value was inactive: -7.65%.

Take `CNCCC(Oc1ccccc1OC)c1ccccc1` (configuration not stated): the “activity change, positive = activation” value is inactive: -2.19%. For the molecule `COc1ccc(OCC(=O)NCC(c2ccc(OC)cc2)N2CCOCC2)cc1` (configuration not stated), the “activity change, positive = activation” value is inactive: -14.7%. For the molecule `Cc1ccc(C)c(N2CCN(C(=O)CS(=O)(=O)c3cccc4nsnc34)CC2)c1`, the “activity change, positive = activation” value was inactive: -45.5%. For the molecule `Cc1cc(NC(=O)C(C)(C)C)cc(-c2nc3ncccc3o2)c1O`, the “activity change, positive = activation” value was inactive: 27.6%.

For `Cc1cc(NC(=O)c2cnc3c(-c4ccccc4)c(C)nn3c2C)ccc1Br`, the “activity change, positive = activation” value is inactive: -4.85%.

On to `Cc1cccc(N2CCN(C(=O)CN3C(=O)COc4ccc(S(=O)(=O)N5CCCC5)cc43)CC2C)c1` (configuration not stated), for which the “activity change, positive = activation” value is inactive: -25.2%. Turning to `CCc1c(CN2CCN(c3ccccc3F)CC2)csc1C`, the “activity change, positive = activation” value was inactive: -3.92%.

In the case of `CCn1c(SCC(=O)c2ccccc2)nnc1-c1cccc(Cl)c1`, the “activity change, positive = activation” value was inactive: -10.5%.
